Data: the RNAGym collection of RNA variant scans (doi:10.7554/elife.90254)
Read counts are not given, so values of variants with three or more changes are uncertain.

B1: LINE1-mini (parent)
chain: GGCAGAGCUCAACACAGCGUGGCAAAGUGGCUGUGGCUAGACUGCC

Variants of: B1
Assay: self-cleavage, relative activity (ratio to wild type); higher = more cleavage; in vitro, sequencing; the parent is a self-cleaving ribozyme

Variant	self-cleavage
GGCACAGCUCAACACAGCGUGGCAAAGUGGCUGUGGCUAGCCCGCC	0.02
GGCACAGCUCAACACAGCGUGGCAAGGUGGCUGUGGCGAGACUCCC	0.03
GGCACAGGUGAACACAGCGUGGCAAAUUGGCUGUGGCUAGACUGCC	0.03
GGCACAGCUCAACACUGCGUUGCAAAUUGGAUGUGGCUAGACUGCC	0.02
GGCACAGGUCAACACAGCGUGGCACAGUAGCUGUGGAUAGAUUGCC	0.03
GGCACAGCUCAACACAGCGUGGCAACGUGGCUAUGGCUAGAUUGCC	0.06
GGCACAGCUCAACACAGCGUGGCAGAGUGCCUGUGGCUAGCCUGCC	0.04
GGCACAGACCAAUACAGAGUGGCAAAGUGGCUUUGGCUAGACUGCC	0.03
GGCACAGCUCAACACAGCGUGGCAAAGUGGCUGUGGCUAGCAUGCC	0.01
GGCACAGCUCAACACAGCGUGGCUAAGUGGCUUUGGCUAGACUGCC	0.04
GGCACAGGUCAACAGAGCGUGGCAAAGAUGCUGUGGCUAGACUGCC	0.12
GGCACAGAUCAACACAACGUGGCAAAGUUGCUGUGGCUAGAAUGCC	0.25
GGCACAGCUCAACACAGCGUGGCAAGGUGGCUGUGGCUAGACUACC	0.03
GGCACAGGUCAAAACAGCGUGGCAAAGUGGUUAUGGCUAGACUGCC	0.07
GGCACAGCUCAACACAGCGUGGCUAAGGGGCUGUGGCUAGACUGCC	0.05
GGCACAGCUCAACACUGCGUGGCAAAGUGGCUGUGGCUAUACUGCC	0.34
GGCACAGAUCAACACAGCGUGGGAAAGUGGCUGUGGCUAGACUGCC	0.11
GGCACAGGUCCAAACCGCGUGGCAAAGUGGCUGUGGCUAGACUGCA	0.03
GGCACAGCUCAACACAGCGUGGCAACGUGGCAAUGGCUAGACUGCC	0.08

Variant	self-cleavage
GGCACAGCUCAACACUGCGUGGCACAGUGGGUAUUGCUAGACUGCC	0.01
GGCACAGCUCAACACAGCGUGGCAACGCGGCUGUGGGUAGACUGCC	0.02
GGCACAGCUCAACACAGCGUGGCCAAGUGGCUGUGGCUAGACUGCG	0.06
GGCACAGCUCAACACAGCGUGGCAAUGUGGCUGUGGCCAGACUGCC	0.05
GGCACAGCUCAACACUGCUAGCCAAAGUGGCUGUGGCUAGACUGCC	0.03
GGCACAGCUCAACACAGCGUGGCAAGGUGGUUGUGGCUAUACUGCC	0.03
GGCACAGCUCAACACAGCGUGGCAAGGAGGCUGUGGCGAGACUGCC	0.03
GGCACAGGUCAACACUGCGUGGCAAAGUUGCUGUGGCUAAAGUGCC	0.02
GGCACAGCUCAACACUGGGUGGAAAUGUGGCUGUGGCUAGACUGCC	0.02
GGCACAGGACAACACAGCGUGGCUAAGUGGCUUUGGCUAGACUGCC	0.17
GGCACAGGUGAACACAGCGUGGCAAUGGGGCUUUGGCUAGACUGCC	0.01
GGCACAGCUCAACACAGCGUGGCAAGGUGGCUGUGGCUAGGCUUCC	0.05
GGCACAGCUCAACACAGCGUGGCAGAGUGGCUGUGGCUAGUCUGCC	0.24
GGCACAGGUCAACACAGCGUGGCCAAGAGGCUGUGGCUAGACUGCC	0.07
GGCACAGCUCAACACUCCGUGGCAAAGUAGCUGUAGCUAGACUGCC	0.03
GGCACAGAUCAACACAGCGUCGCAAAGUGGCUGUGGCUAGCCUGCC	0.16
GGCACAGCUCAACACAGCGUGGCAAAGUGGCUGUGGCUAGGCUGUC	0.04
GGCACAGGUCAACUCAGUGUAGCAAAGUGGCUGUGGCUAGUCUCCC	0.03
GGCACAGGUCAACACAGCGUGGCAAAGUAGCUGUGGCUAGACUGCC	0.2

Variant	self-cleavage
GGCACAGCUCAACACGGCGUGGCAAAGUGGCUUUGGCUAGACUGGC	0.01
GGCACAGAUCAACACAUGGUGGGAAAGUGGCUGUGGCUAGACUGCC	0.26
GGCACAGCUCAACACAGCGUGGCAAAGUGGCUGUGGCUGGACUGCA	0.05
GGCACAGGUCAACACAGCGAGGGAACGUGGCUGUGGCUGGACUGCC	0.29
GGCACAGCUCAACACUGCGUGGCAAAGUGGCUGUGGCUAGACUGUC	0.03
GGCACAGAUCAACACAGCGUGGCAAAGUGGCUGUGGCUAGACCGCC	0.04
GGCACAGAUCAAAACAGCGUGGCAUAGUGGCUGUGGCUAGGCUGCC	0.17
GGCACAGGUCAACUCAGCGUGGCAAAGUGGAUGUGGCUAGUCUGCC	0.12
GGCACAGCUCAACACUGCGUGGCAAAGUGGCUGUGGCUAGACUGCG	0.01
GGCACAGGUUAACACAGCGUGGCAAAGUGGGUGUGGCUAGAGUGCC	0.04
GGCACAGAUCUACACAGCGUGGCAAAGUGGCUGUGGCUAGACUGCC	0.02
GGCACAGCUCAACACUGCGUGGCAAAGUCGCUGUGGCUAGAUUGCC	0.03
GGCACAGCUCAACACAGCGUGGCUAAGUGGCUGUGGGUAGACUGCC	0.01
GGCACAGCUCAACACAGCGUGGCGAAGUGGAUGUGGCUAGACUGCC	0.02
GGCACAGCUCAACACUGCGUGGCUAAGUGGCUGUGGCUAGACUGCC	0.09
GGCACAGGUCAACACAGCGUGGAAAAAUGGCUGUGGCUAGACUUCC	0.03
GGCACAGCUCAACACAGCGUGGCAUAUUGGCUGUGGCUAGACUGCC	0.04
GGCACAGCUCAACACAGCGUGGCAUAGUGGCUGUGGAUAGACUGCC	0.11
